Assay results as given in PubChem BioAssay AID588342 (National Center for Advancing Translational Sciences (NCATS), 2011).
Among all 360,000 compounds or so, about 25,000 (6.9%) were called active. The inconclusive results got no clear call from the source; some entries with a clear call stand among them for comparison. Calls follow the shape of the dose curve; as a rule, active = well fitted inhibition curve with a large enough effect; inconclusive = small, poorly fitted or top-dose-only effect; inactive = flat fitted curve, though single readings scatter. A potency beside an inconclusive call is a rough fit, not a confirmed value.
Also: nearly all actives have a fitted effect of over 55% in size.
Potency is read from the fitted curve at half-maximal effect; tags tell the direction and shape of the fitted curve.

The molecules below were run against Luciferin 4-monooxygenase (Photinus pyralis) (UniProt P08659) (assay: qHTS profiling assay for firefly luciferase inhibitor/activator using purifed enzyme and Km concentrations of substrates (counterscreen for miR-21 project)). Conditions: purified FLuc, luminescence inhibition; series mostly up to 57.5 µM.
Sequence of UniProt P08659 (P08659 whole entry, looked up): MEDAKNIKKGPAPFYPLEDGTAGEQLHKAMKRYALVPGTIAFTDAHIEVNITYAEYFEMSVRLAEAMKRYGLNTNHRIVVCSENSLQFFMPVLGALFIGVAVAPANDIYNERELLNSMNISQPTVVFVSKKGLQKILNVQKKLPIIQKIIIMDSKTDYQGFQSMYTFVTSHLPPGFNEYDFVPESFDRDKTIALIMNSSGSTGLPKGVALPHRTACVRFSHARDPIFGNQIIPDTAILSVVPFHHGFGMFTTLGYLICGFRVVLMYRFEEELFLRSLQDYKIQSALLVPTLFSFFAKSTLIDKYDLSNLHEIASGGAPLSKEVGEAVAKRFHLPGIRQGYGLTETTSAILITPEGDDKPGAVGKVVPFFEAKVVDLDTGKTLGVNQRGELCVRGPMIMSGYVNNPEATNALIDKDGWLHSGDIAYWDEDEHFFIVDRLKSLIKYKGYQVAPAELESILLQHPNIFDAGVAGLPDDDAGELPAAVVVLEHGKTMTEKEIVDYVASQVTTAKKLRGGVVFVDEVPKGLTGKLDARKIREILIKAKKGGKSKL
Procedure, shortened: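 Biochemical qHTS of compounds, final roughly 60 µM downward over six points, against 10 nM purified firefly luciferase using Km concentrations of substrates (10 uM D-luciferin, 10 uM ATP) in Tris acetate pH 7.5 buffer; luminescence output.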
With `COc1ccc(NC(=O)c2cc(-c3cccs3)on2)cc1` the Potency was inconclusive: 1.69 µM [inhibitor, full curve]. In the case of `Cc1cccc(OCc2nnc(SCC(=O)N(C)C3CCCCC3)o2)c1`, the Potency is reported as inconclusive: 21.3 µM [inhibitor, partial curve, poor fit]. `Cc1ccc(/C=C2\SC(=S)N(CCC(=O)N3CCOCC3)C2=O)cc1` was tested, and the Potency was inconclusive: 3.79 µM [inhibitor, partial curve, poor fit]. For `COc1ccc(-c2cc(-c3n[nH]c(=S)n3-c3cccc4ccccc34)[nH]n2)cc1`, the Potency was inconclusive: 37.9 µM [inhibitor, partial curve, poor fit]. With `COc1cc(C(=O)Nc2ccc3c(c2)CCN3C(C)=O)cc(OC)c1OC` the Potency was inconclusive: 21.3 µM [inhibitor, partial curve, poor fit]. For `O=C(O)/C=C/c1cnc2ccccc2c1`, the Potency was inconclusive: 37.9 µM [inhibitor, partial curve, poor fit]. In the case of `CCN(CC)C(=O)COC(=O)c1cc(-c2ccco2)nc2ccccc12`, the Potency is reported as inconclusive: 26.9 µM [inhibitor, partial curve]. `CCOC(=O)c1nc(NCCc2ccccc2)sc1C` was tested, and the Potency was inconclusive: 26.9 µM [inhibitor, single point]. With `CC1(C)CC(NC(=O)C2CCC(=O)N(Cc3ccccc3F)C2)CC(C)(C)C1` (centres undefined) the Potency was inconclusive: 23.9 µM [inhibitor, single point]. In the case of `O=C(CSc1nc2[nH]ncc2c(=O)n1-c1ccccc1)N1CCCCCC1`, the Potency is reported as “inactive”. With `Cc1nc(N/N=C/c2ccc(O)cc2O)cc(N2CCOCC2)n1` the Potency was inconclusive: 26.9 µM [inhibitor, single point]. `O=C(OCc1ccccc1F)c1ccc2c(c1)-c1ccccc1C2=O` was tested, and the Potency was inconclusive: 21.3 µM [inhibitor, partial curve]. In the case of `Cc1csc(NC(=O)Cc2c[nH]c3ccccc23)n1`, the Potency is reported as inconclusive: 23.9 µM [inhibitor, single point]. For `Cc1cc(N2CCOCC2)ccc1/C=C1\NC(=O)N(CC(=O)Nc2ccccc2C)C1=O`, the Potency was inconclusive: 19 µM [inhibitor, partial curve]. For `CCCn1nnc(NC(=O)c2cccc(OCC)c2)n1`, the Potency was active: 16.9 µM. `O=C(Nc1ccccc1C(=O)Nc1ccc(Br)cn1)c1ccccc1Cl` was tested, and the Potency was inconclusive: 13.5 µM [inhibitor, partial curve]. In the case of `Cc1ccc(NC(=O)c2ccc(COc3ccccc3)o2)nc1`, the Potency is reported as inconclusive: 26.9 µM [inhibitor, single point]. For `COc1cc(/C=N/Nc2cccc(C)c2)cc(Br)c1O`, the Potency was inconclusive: 19 µM [inhibitor, partial curve]. With `CN(C)c1nc(-c2cn(CCC#N)c3ccccc23)cs1` the Potency was inconclusive: 26.9 µM [inhibitor, partial curve, poor fit]. For `COC(=O)c1cccc(Nc2c(-c3ccc(SC)cc3)nc3nc[nH]n23)c1`, the Potency was inconclusive: 26.9 µM [inhibitor, partial curve, poor fit]. `COc1ccc(Cl)cc1NC(=O)C(OC)c1ccccc1` (centres undefined) was tested, and the Potency was inconclusive: 0.0135 µM [inhibitor, partial curve, poor fit]. In the case of `CN(C)S(=O)(=O)c1cccc(COC(=O)c2ccc(Cl)cc2O)c1`, the Potency is reported as “inactive”. For `O=C(CN1C(=O)NC2(CCOc3ccccc32)C1=O)Nc1ccc2c(c1)OCCO2` (centres undefined), the Potency was inconclusive: 37.9 µM [inhibitor, partial curve, poor fit]. `COc1cc2c(cc1OC)CN(c1ccc(C(F)(F)F)cn1)CC2` was tested, and the Potency was active: 16.9 µM. For `COc1ccc(CNC(=O)COC(=O)CCCOc2ccc(Cl)cc2Cl)cc1`, the Potency was inconclusive: 19 µM [inhibitor, single point]. `CCOc1ccc(NC(=O)Cn2cc(C(=O)c3ccc(F)cc3)c(=O)c3cc4c(cc32)OCO4)cc1` was tested, and the Potency was “inactive”. With `CCc1ccc(C(=O)NNC(=O)c2n[nH]c(=O)c3ccccc23)cc1` the Potency was inconclusive: 15.1 µM [inhibitor, partial curve]. In the case of `O=C(c1cc(COc2cccc(C(F)(F)F)c2)on1)N1C[C@@H]2CCC[C@H]1C2`, the Potency is reported as active: 23.9 µM. For `CCC(NC(=O)c1cc(COc2ccc(F)c(F)c2)on1)c1ccncc1` (centres undefined), the Potency was inconclusive: 21.3 µM [inhibitor, partial curve, poor fit]. In the case of `COc1ccc(NC(=O)c2cnc(N3CCOCC3)c3ccccc23)cc1OC`, the Potency is reported as inconclusive: 37.9 µM [inhibitor, partial curve, poor fit]. For `Cc1ccc(-c2noc(CN3CCOCC3)n2)cc1`, the Potency was active: 16.9 µM. `Cc1ccc(NC(=O)c2ccc(S(=O)(=O)N3CCC(C)CC3)cc2)nc1` was tested, and the Potency was inconclusive: 26.9 µM [inhibitor, partial curve, poor fit]. With `O=C(Nc1ccc2nc(SCCOc3ccccc3)sc2c1)c1ccco1` the Potency was inconclusive: 23.9 µM [inhibitor, partial curve, poor fit]. For `O=C(c1ccccc1)c1c(O)cc(-c2ccccc2)oc1=O`, the Potency was inconclusive: 16.9 µM [inhibitor, single point]. For `COc1ccc(C2=NN(C(=O)CN3CCOCC3)C(c3nc4ccccc4[nH]3)C2)cc1` (centres undefined), the Potency was active: 15.1 µM. For `CCn1cc(C(=O)OCC(=O)c2cc(C)n(-c3ccccc3F)c2C)c(=O)c2ccc(C)nc21`, the Potency was inconclusive: 30.1 µM [inhibitor, single point]. In the case of `Cc1ccc(-c2cc(C(=O)NCCCN3CCOCC3)no2)cc1`, the Potency is reported as inconclusive: 19 µM [inhibitor, partial curve]. In the case of `COc1ccc2nc(SCC(=O)NC(C)(C)C)[nH]c2c1`, the Potency is reported as “inactive”. `O=c1c(Cl)c(NCCCO)cnn1-c1nc2ccccc2[nH]1` was tested, and the Potency was active: 12 µM. With `O=C(Nc1cccc(Br)c1)Nc1nc2c(s1)CCCCCC2` the Potency was active: 10.7 µM. With `COc1cc(CN2CC(=O)N(c3cc(Cl)ccc3C)C2=S)cc(OC)c1OC` the Potency was “inactive”. In the case of `CC1CCCN(C(=O)Nc2ccc(Br)cc2Cl)C1` (centres undefined), the Potency is reported as inconclusive: 26.9 µM [inhibitor, partial curve]. `c1csc(C2Nc3cccc4cccc(c34)N2)c1` was tested, and the Potency was inconclusive: 37.9 µM [inhibitor, single point]. For `CN(C)/C=C/c1c([N+](=O)[O-])c2ccc(O)cc2n1-c1ccccc1`, the Potency was “inactive”. `Cn1c(SCC(=O)O)nnc1-c1cccc(NC(=O)c2cccc3ccccc23)c1` was tested, and the Potency was inconclusive: 26.9 µM [inhibitor, single point]. `CCc1noc(-c2ccc(N3CCC(C)CC3)c([N+](=O)[O-])c2)n1` was tested, and the Potency was inconclusive: 23.9 µM [inhibitor, partial curve, poor fit]. For `CC(C)(C)c1csc(N/N=C/c2cccnc2)n1`, the Potency was active: 12 µM. With `O=C(O)c1ccccc1NS(=O)(=O)c1ccc2ccccc2c1` the Potency was active: 15.1 µM. For `Cc1cc(C(=O)NNC(=O)c2ccccc2[N+](=O)[O-])c(C)o1`, the Potency was inconclusive: 13.5 µM [inhibitor, partial curve]. In the case of `COc1ccc(Nc2nc(N)nc(CSCCO)n2)cc1`, the Potency is reported as inconclusive: 19 µM [inhibitor, single point]. `CCc1ccc(CN(Cc2ccco2)c2cnc(S(C)(=O)=O)nc2C(=O)Nc2ccc(C)c(Cl)c2)cc1` was tested, and the Potency was “inactive”. For `CCCC(=O)Oc1c(Sc2ccc(C)cc2)c(C)nn1-c1ccccc1`, the Potency was inconclusive: 10.7 µM [inhibitor, partial curve]. With `CCCS(=O)(=O)NCc1cn2c(C)csc2n1` the Potency was inconclusive: 26.9 µM [inhibitor, partial curve]. `Cc1ccccc1S(=O)(=O)NCC1CCCO1` (centres undefined) was tested, and the Potency was “inactive”. In the case of `Cc1ccc(-c2nnc(-c3cc(C)on3)o2)cc1`, the Potency is reported as active: 1.51 µM. For `O=S(=O)(Nc1ccc2c(c1)OCCO2)c1ccc(F)c(F)c1`, the Potency was “inactive”. With `CC(=O)NCc1ccc(C(=O)COC(=O)COc2ccccc2)s1` the Potency was inconclusive: 30.1 µM [inhibitor, single point]. With `COC(=O)c1ccccc1NC(=O)c1cc2ccccn2n1` the Potency was inconclusive: 5.36 µM [inhibitor, full curve]. With `Cc1oc2c(cc(NS(=O)(=O)c3ccc(Br)cc3)c3ccccc32)c1C(=O)OCc1ccccc1` the Potency was “inactive”. In the case of `CCCc1cc(C(=O)NCc2cccnc2)no1`, the Potency is reported as “inactive”. For `CN(C)c1ccc(C(=O)Nc2sc(Nc3ccccc3)nc2C(N)=O)cc1`, the Potency was inconclusive: 23.9 µM [inhibitor, single point]. With `CCOC(=O)c1ccc(N2C(=O)C=C(N3CCOCC3)C2=O)cc1` the Potency was inconclusive: 26.9 µM [inhibitor, partial curve, poor fit]. For `Cc1ccc(C(=O)COC(=O)CCc2nc3ccccc3[nH]c2=O)cc1C`, the Potency was inconclusive: 7.57 µM [inhibitor, partial curve]. In the case of `CCSc1nc(N)c2c3c(sc2n1)CN(C)CC3`, the Potency is reported as inconclusive: 26.9 µM [inhibitor, single point]. For `COc1ccc(C)cc1Nc1nc2c(S(=O)(=O)c3cc(C)ccc3C)nnn2c2ccsc12`, the Potency was “inactive”. In the case of `O=C(CCc1nnc(CCCc2ccccc2)o1)NC(C1CC1)C1CC1`, the Potency is reported as active: 12 µM. In the case of `COc1ccc2nc(NC(=O)Cn3cnc4ccccc4c3=O)sc2c1`, the Potency is reported as inconclusive: 12 µM [inhibitor, partial curve]. In the case of `COC(=O)C1C(c2ccc(OC)cc2)Nc2nnc(C(F)(F)F)n2C1(C)O` (centres undefined), the Potency is reported as inconclusive: 12 µM [inhibitor, partial curve]. In the case of `O=C(O)CSCC(=O)N1CCCN(c2nc3ccc(Cl)cc3s2)CC1`, the Potency is reported as inconclusive: 37.9 µM [inhibitor, single point].
